Assay results reported in the supplement of paper PMC2702839.
Structures can show the parent of a compound that is named as a salt. The list shows a part of the results.

System: Schistosoma mansoni schistosomula
Assay: phenotypic hit in primary schistosomula screen (any phenotype vs DMSO control) (binary (1 = hit, 0 = no phenotype)); higher = active (phenotype induced)
Conditions: 1 µM; time (d): 7

Row | Compound | phenotypic hit
1 | CC(=O)N1CCN(c2ccc(OCC3COC(Cn4ccnc4)(c4ccc(Cl)cc4Cl)O3)cc2)CC1 (centres undefined) [ketoconazole] | inactive: 0
2 | CC[C@]12CCCN3CCc4c(n(c5ccccc45)C(=O)C1)[C@@H]32 [eburnamonine] | inactive: 0
3 | CC1(C)[C@@H](O[C@H]2O[C@H](C(=O)O)[C@@H](O)[C@H](O)[C@H]2O[C@@H]2O[C@H](C(=O)O)[C@@H](O)[C@H](O)[C@H]2O)CC[C@]2(C)[C@H]3C(=O)C=C4[C@@H]5C[C@@](C)(C(=O)O)CC[C@]5(C)CC[C@@]4(C)[C@]3(C)CC[C@@H]12 [glycyrrhizic acid] | inactive: 0
4 | C[C@]12C=CC(=O)C=C1CC[C@@H]1[C@@H]2C(=O)C[C@@]2(C)[C@H]1CC[C@]2(O)C(=O)CO [prednisone] | inactive: 0
5 | CCOC(=O)CCC(=O)O[C@H]1[C@H](O[C@@H]2[C@@H](C)[C@H](O[C@H]3C[C@@](C)(OC)[C@@H](O)[C@H](C)O3)[C@@H](C)C(=O)O[C@H](CC)[C@@](C)(O)[C@H](O)[C@@H](C)C(=O)[C@H](C)C[C@@]2(C)O)O[C@H](C)C[C@@H]1N(C)C [erythromycin ethylsuccinate] | inactive: 0
6 | CS(=O)(=O)Nc1ccc([N+](=O)[O-])cc1Oc1ccccc1 [nimesulide] | inactive: 0
7 | CCn1cc(C(=O)O)c(=O)c2cc(F)c(N3CCNC(C)C3)c(F)c21 (centres undefined) [lomefloxacin hydrochloride] | inactive: 0
8 | Cc1occc(=O)c1/C=C/O [2-methyl-3-hydroxyethylenepyran-4-one] | inactive: 0
9 | C[C@]12CC[C@@H](O)C[C@H]1CC[C@@H]1[C@@H]2C(=O)C[C@@]2(C)[C@H]1CC[C@]2(O)C(=O)CO [tetrahydrocortisone] | inactive: 0
10 | Cc1c(O)cc(O)c2c(=O)c(-c3ccc(O)cc3)coc12 [genistein, 8-methyl] | inactive: 0
11 | CNCCC=C1c2ccccc2CCc2ccccc21 [Nortriptyline hydrochloride] | inactive: 0
12 | COc1ccc(C2CC(=O)c3ccc(OC)cc3O2)cc1 (centres undefined) [liquiritigenin dimethyl ether] | inactive: 0
13 | Cc1ccc2c(c1)CC[C@H]1CC(=O)CC[C@]21C [13-methyl-4,4-bisnor-8,11,13-podocarpatrien-3-one] | inactive: 0
14 | CC(=O)O[C@H]1CC[C@]2(C)[C@H]3CC[C@@]4(C)[C@H](c5ccoc5)OC(=O)[C@H]5O[C@]54[C@]3(C)[C@H](OC(C)=O)C[C@H]2C1(C)C [3beta-acetoxydeoxodihydrogedunin] | inactive: 0
15 | Cc1ccc(/C(=C\CN2CCCC2)c2ccccn2)cc1 [Triprolidine hydrochloride] | inactive: 0
16 | Cc1ccc(C(C)C)cc2c(C)ccc1-2 [guaiazulene] | inactive: 0
17 | NC(=O)c1ncn([C@@H]2O[C@H](CO)[C@@H](O)[C@H]2O)c1O [mizoribine] | inactive: 0
18 | CCc1cc(C(N)=S)ccn1 [ethionamide] | inactive: 0
19 | CC(=O)Nc1ccc(S(=O)(=O)Nc2ccc([N+](=O)[O-])cc2)cc1 [sulfanitran] | inactive: 0
20 | Cc1ccc(C(=O)Nc2ccc(S(=O)(=O)O)c3cc(S(=O)(=O)O)cc(S(=O)(=O)O)c23)cc1NC(=O)c1cccc(NC(=O)Nc2cccc(C(=O)Nc3cc(C(=O)Nc4ccc(S(=O)(=O)O)c5cc(S(=O)(=O)O)cc(S(=O)(=O)O)c45)ccc3C)c2)c1 [Suramin hexasodium] | inactive: 0

Row | Compound | phenotypic hit
21 | COc1cc2cccc(OC)c(=O)c2c(OC)c1OC [purpurogallin tetramethyl ether] | inactive: 0
22 | CC(=O)OCC(=O)[C@@]1(O)CC[C@H]2[C@@H]3CCC4=CC(=O)CC[C@]4(C)[C@H]3C(=O)C[C@@]21C [cortisone acetate] | inactive: 0
23 | COc1cc(C(=O)N2CCOCC2)cc(OC)c1OC [trimetozine] | inactive: 0
24 | CCCCC(=O)O[C@]1(C(=O)CO)[C@@H](C)C[C@H]2[C@@H]3CCC4=CC(=O)C=C[C@]4(C)[C@@]3(F)[C@@H](O)C[C@@]21C [betamethasone valerate] | inactive: 0
25 | COc1cc(O)c(C(C)=O)c(OC)c1 [xanthoxylin] | inactive: 0
26 | COC(=O)CCC(=O)O[C@H]1CCC2(C)C(CCC3C2C(=O)[C@@H](O)C2(C)C3CC3OC4(CCC(C)CO4)[C@@H](C)C32)C1 (some centres undefined) | inactive: 0
27 | Nc1ccc(S(=O)(=O)Nc2ccc(Cl)nn2)cc1 [sulfachlorpyridazine] | inactive: 0
28 | CC(=O)NC(C(=O)O)C(C)(C)SN=O (centres undefined) [snap (s-nitroso-n-acetylpenicillamine)] | inactive: 0
29 | CC(C)(O)CC[C@@H](O)[C@](C)(O)[C@H]1CC[C@@]2(O)C3=CC(=O)[C@@H]4C[C@@H](O)[C@@H](O)C[C@]4(C)[C@H]3CC[C@]12C [crustecdysone] | inactive: 0
30 | Oc1ccc(O)cc1 [hydroquinone] | inactive: 0
31 | CC1=C2C(O)C(=O)OC3CC4C(C)(C)C(=O)C=C[C@]4(C)C(CC1)[C@]23C (some centres undefined) [merogedunin] | inactive: 0
32 | CC1CCC(NC(=O)N(CCCl)N=O)CC1 (centres undefined) [semustine] | inactive: 0
33 | CN(C)CCC=C1c2ccccc2C=Cc2ccccc21 [cyclobenzaprine hydrochloride] | active: 1
34 | O=c1cc(-c2ccccc2O)oc2cccc(O)c12 [5,2'-dihydroxyflavone] | inactive: 0
35 | COc1cc(/C=C/C(=O)O)ccc1O [ferulic acid] | inactive: 0
36 | CC(=O)O[C@H]1CC[C@]2(C)[C@H]3CC=C4[C@@H]5CC(C)(C)CC[C@]5(C)CC[C@@]4(C)[C@]3(C)CC[C@H]2C1(C)C [beta-amyrin acetate] | inactive: 0
37 | NS(=O)(=O)c1cc2c(cc1Cl)NCNS2(=O)=O [Hydrochlorothiazide] | inactive: 0
38 | Nc1ccc(C(=O)Oc2ccccc2)c(O)c1 [fenamisal] | inactive: 0
39 | O=c1[nH]c(=O)n([C@H]2C[C@H](O)[C@@H](CO)O2)cc1F [floxuridine] | inactive: 0
